{"source": "the supplement of paper PMC12217912", "parents": {"B1": {"name": "TEV protease; numbered along this chain (parent)", "chain": "MGESLFKGPRDYNPISSSICHLTNESDGHTTSLYGIGFGPFIITNKHLFRRNNGTLVVQSLHGVFKVKDTTTLQQHLVDGRDMIIIRMPKDFPPFPQKLKFREPQREERICLVTTNFQTKSMSSMVSDTSCTFPSGDGIFWKHWIQTKDGQCGSPLVSTRDGFIVGIHSASNFTNTNNYFTSVPKNFMELLTNQEAQQWVSGWRLNADSVLWGGHKVFMVKPEEPFQPVKEATQL"}}, "note": "The list shows a part of the results. Sequences were assembled here from the parent chain. Inactive controls read about 0.05.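 Further: Bxb1 expression induced with 0.2% (w/v) L-rhamnose at OD600 near 0.5, cultures sampled hourly, flipped fraction per protease–substrate barcode pair counted by paired-end Illumina sequencing.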", "data": [{"variants_of": "B1", "test": "raw area under fraction-flipped curve 0-4 h after induction (AUC4h, not background-subtracted), DNA-recorder readout of cleavage of the substrate (dimensionless); higher = more cleavage of the substrate by the protease variant", "details": "temperature: 34 °C; time window: 0-4 h after rhamnose induction", "values": [{"variant": "MGESLFKGPRDYNPISSSICHLTNESDGHTTSLYGIGFGPFIITNKHLFRRNNGTLVVQSLHGVFKVKDTTTLQQHLVDGRDMIIIRMPKDFPPFPQKLKFREPQREERICLVTTNFQTKSMSSMVSDTSCTFPSGDGIFWKHWIQTKDGQCGEPLVSTRDGFIVGIHSASNFTNTNNYFTSVPKNFMELLTNQEAQQWVSGWRLNADSVLWGGHKVFMVKPEEPFQPVKEATQL", "note": "[S154E]", "area with substrate EFLYFQS": 0.112, "area with substrate ELLYFQS": 0.061, "area with substrate EMLYFQS": 0.0906, "area with substrate EPLYFQS": 0.0812, "area with substrate EQLYFQS": 0.0784, "area with substrate ERLYFQS": 0.0781, "area with substrate ESLYFQS": 0.0744, "area with substrate EVLYFQS": 0.0655, "area with substrate EWLYFQS": 0.0468}, {"variant": "MGESLFKGPRDYNPISSSICHLTNESDGHTTSLYGIGFGPFIITNKHLFRRNNGTLVVQSLHGVFKVKDTTTLQQHLVDGRDMIIIRMPKDFPPFPQKLKFSEPQREERICLVTTNFQTKSMSSMVSDTSCTFPSGDGIFWKHWIQTKDGQCGSPLVSTRDGFIVGIHSASNFTNTNNYFTSVPKNFMELLTNQEAQQWVSGWRLNADSVLWGGHKVFMVKPEEPFQPVKEATQL", "note": "[R102S]", "area with substrate EGLYFQS": 0.069, "area with substrate EHLYFQS": 0.0479, "area with substrate EKLYFQS": 0.0754, "area with substrate ELLYFQS": 0.0511, "area with substrate EPLYFQS": 0.0573, "area with substrate EQLYFQS": 0.0576, "area with substrate ERLYFQS": 0.0584, "area with substrate ESLYFQS": 0.0576, "area with substrate ETLYFQS": 0.109, "area with substrate EVLYFQS": 0.0668, "area with substrate EWLYFQS": 0.0667}, {"variant": "MGESLFTGPRDYNPISSSICHLTNESDGHTTSLYGIGFGPFIITNKHLFRRNNGTLVVQSLHGVFKVKDTTTLQQHLVDGRDMIIIRMPKDFPPFPQKLKFREPQREERICLVTTNFQTKSMSSMVSDTSCTFPSGDGIFWKHWIQTKDGQCGSPLVSTRDGFIVGIHSASNFTNTNNYFTSVPKNFMELLTNQEAQQWVSGWRLNADSVLWGGHKVFMVKPEEPFQPVKEATQL", "note": "[K7T]", "area with substrate EILYFQS": 0.0776, "area with substrate EKLYFQS": 0.0892, "area with substrate ELLYFQS": 0.0995, "area with substrate EPLYFQS": 0.105, "area with substrate EQLYFQS": 0.0864, "area with substrate ERLYFQS": 0.0828, "area with substrate EVLYFQS": 0.0781, "area with substrate EWLYFQS": 0.0565}, {"variant": "MGESLFKGPRDYNPISSSICHLTNESDGHTTSLYGIGFGPFIITNKHLFRRNNGTLVVQSLHGVFKVKDTTTLQQHLVDGRDMIIIRMPKDFPPFPQKLKFRNPQREERICLVTTNFQTKSMSSMVSDTSCTFPSGDGIFWKHWIQTKDGQCGSPLVSTRDGFIVGIHSASNFTNTNNYFTSVPKNFMELLTNQEAQQWVSGWRLNADSVLWGGHKVFMVKPEEPFQPVKEATQL", "note": "[E103N]", "area with substrate EFLYFQS": 0.119, "area with substrate EHLYFQS": 0.0673, "area with substrate EILYFQS": 0.108, "area with substrate EQLYFQS": 0.124, "area with substrate EVLYFQS": 0.113, "area with substrate EWLYFQS": 0.0762}, {"variant": "MGESLFKGPRDYNPRSSSICHLTNESDGHTTSLYGIGFGPFIITNKHLFRRNNGTLVVQSLHGVFKVKDTTTLQQHLVDGRDMIIIRMPKDFPPFPQKLKFREPQREERICLVTTNFQTKSMSSMVSDTSCTFPSGDGIFWKHWIQTKDGQCGSPLVSTRDGFIVGIHSASNFTNTNNYFTSVPKNFMELLTNQEAQQWVSGWRLNADSVLWGGHKVFMVKPEEPFQPVKEATQL", "note": "[I15R]", "area with substrate EKLYFQS": 0.0674, "area with substrate EMLYFQS": 0.0621, "area with substrate EPLYFQS": 0.0516, "area with substrate ESLYFQS": 0.071, "area with substrate ETLYFQS": 0.0656, "area with substrate EVLYFQS": 0.0617, "area with substrate EWLYFQS": 0.0696}, {"variant": "MWESLFKGPRDYNPISSSICHLTNESDGHTTSLYGIGFGPFIITNKHLFRRNNGTLVVQSLHGVFKVKDTTTLQQHLVDGRDMIIIRMPKDFPPFPQKLKFREPQREERICLVTTNFQTKSMSSMVSDTSCTFPSGDGIFWKHWIQTKDGQCGSPLVSTRDGFIVGIHSASNFTNTNNYFTSVPKNFMELLTNQEAQQWVSGWRLNADSVLWGGHKVFMVKPEEPFQPVKEATQL", "note": "[G2W]", "area with substrate EMLYFQS": 0.14, "area with substrate EQLYFQS": 0.134, "area with substrate ESLYFQS": 0.148, "area with substrate EVLYFQS": 0.147}, {"variant": "MGESLFKGPRDTNPISSSICHLTNESDGHTTSLYGIGFGPFIITNKHLFRRNNGTLVVQSLHGVFKVKDTTTLQQHLVDGRDMIIIRMPKDFPPFPQKLKFREPQREERICLVTTNFQTKSMSSMVSDTSCTFPSGDGIFWKHWIQTKDGQCGSPLVSTRDGFIVGIHSASNFTNTNNYFTSVPKNFMELLTNQEAQQWVSGWRLNADSVLWGGHKVFMVKPEEPFQPVKEATQL", "note": "[Y12T]", "area with substrate EHLYFQS": 0.0839, "area with substrate EILYFQS": 0.121, "area with substrate EMLYFQS": 0.118, "area with substrate EPLYFQS": 0.104, "area with substrate EQLYFQS": 0.139, "area with substrate ERLYFQS": 0.12, "area with substrate ESLYFQS": 0.0985, "area with substrate EVLYFQS": 0.112, "area with substrate EWLYFQS": 0.109}, {"variant": "MGESLFKGPRDYNPISSSICHLTNESDGHTTSLYGIGFGPFIITNKHLFRRNNGTLVVQSLHGVFKVKDTTTLLQHLVDGRDMIIIRMPKDFPPFPQKLKFREPQREERICLVTTNFQTKSMSSMVSDTSCTFPSGDGIFWKHWIQTKDGQCGSPLVSTRDGFIVGIHSASNFTNTNNYFTSVPKNFMELLTNQEAQQWVSGWRLNADSVLWGGHKVFMVKPEEPFQPVKEATQL", "note": "[Q74L]", "area with substrate EFLYFQS": 0.112, "area with substrate EKLYFQS": 0.114, "area with substrate ERLYFQS": 0.0724, "area with substrate ESLYFQS": 0.0963, "area with substrate ETLYFQS": 0.124, "area with substrate EYLYFQS": 0.107}]}]}
